Assay results from paper PMC3749138.
No constants are given. Whether binding was seen depends on the method and setting. For some assays here: In cells and extracts the contact can be indirect. Some entries that bind do so weakly or less than the wild type. For some assays here: Tags and fused reporters may be left off the sequences shown. Blank lines part the entries; values can stand above or below the binder they belong to.

The chains behind the UniProt entries cited, without tags or fusion partners.
UniProt O60573: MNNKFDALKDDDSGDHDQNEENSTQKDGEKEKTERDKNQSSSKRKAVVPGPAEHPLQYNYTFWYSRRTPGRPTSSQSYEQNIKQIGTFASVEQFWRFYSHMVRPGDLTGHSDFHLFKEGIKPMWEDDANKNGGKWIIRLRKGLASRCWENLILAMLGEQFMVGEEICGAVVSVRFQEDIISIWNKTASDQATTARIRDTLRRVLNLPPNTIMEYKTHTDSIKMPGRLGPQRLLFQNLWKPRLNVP

What was measured:
[1] = target: pGBKT7-4E2 (human eIF4E2, yeast two-hybrid fusion) (human) (UniProt O60573); assay: two-hybrid; GAL4-based system (Clontech), AH109 cells; pGBKT7 and pGADT7 constructs; interaction checked by growth on high stringency -Ade/-His/-Leu/-Trp dropout medium
HA-eIF4E2 (human) = HA-eIF4E2 (human) (UniProt O60573); assay: co-IP; chicken anti-eIF4E2 on Chicken IgY Precipitating Resin with 1 mg lysate of HeLa cells transfected with HA-eIF4E2, NET buffer, 4°C; western blotting for 4E-T

binding [1]: binds
B1: pGADT7-4E-T (human 4E-T, yeast two-hybrid fusion) (protein, UniProt Q9NRA8 1-985)
chain: MDRRSMGETESGDAFLDLKKPPASKCPHRYTKEELLDIKELPHSKQRPSCLSEKYDSDGVWDPEKWHASLYPASGRSSPVESLKKELDTDRPSLVRRIVDPRERVKEDDLDVVLSPQRRSFGGGCHVTAAVSSRRSGSPLEKDSDGLRLLGGRRIGSGRIISARTFEKDHRLSDKDLRDLRDRDRERDFKDKRFRREFGDSKRVFGERRRNDSYTEEEPEWFSAGPTSQSETIELTGFDDKILEEDHKGRKRTRRRTASVKEGIVECNGGVAEEDEVEVILAQEPAADQEVPRDAVLPEQSPGDFDFNEFFNLDKVPCLASMIEDVLGEGSVSASRFSRWFSNPSRSGSRSSSLGSTPHEELERLAGLEQAILSPGQNSGNYFAPIPLEDHAENKVDILEMLQKAKVDLKPLLSSLSANKEKLKESSHSGVVLSVEEVEAGLKGLKVDQQVKNSTPFMAEHLEETLSAVTNNRQLKKDGDMTAFNKLVSTMKASGTLPSQPKVSRNLESHLMSPAEIPGQPVPKNILQELLGQPVQRPASSNLLSGLMGSLEPTTSLLGQRAPSPPLSQVFQTRAASADYLRPRIPSPIGFTPGPQQLLGDPFQGMRKPMSPITAQMSQLELQQAALEGLALPHDLAVQAANFYQPGFGKPQVDRTRDGFRNRQQRVTKSPAPVHRGNSSSPAPAASITSMLSPSFTPTSVIRKMYESKEKSKEEPASGKAALGDSKEDTQKASEENLLSSSSVPSADRDSSPTTNSKLSALQRSSCSTPLSQANRYTKEQDYRPKATGRKTPTLASPVPTTPFLRPVHQVPLVPHVPMVRPAHQLHPGLVQRMLAQGVHPQHLPSLLQTGVLPPGMDLSHLQGISGPILGQPFYPLPAASHPLLNPRPGTPLHLAMVQQQLQRSVLHPPGSGSHAAAVSVQTTPQNVPSRSGLPHMHSQLEHRPSQRSSSPVGLAKWFGSDVLQQPLPSMPAKVISVDELEYRQ

binding (HA-eIF4E2 (human)): binds
B2: 4E-T (endogenous) (protein, UniProt Q9NRA8 1-985)
chain: B1 chain
